The antibiotic and cytotoxicity screens of Wong et al. (2023)
The list shows a part of the results.

Tested on: HSkMC (human skeletal muscle cells)
Assay: cytotoxicity call (relative viability < 0.9)
Conditions: 10 µM

Row | SMILES | cytotoxicity call
1 | CO[C@@H]1CN(C)C(=O)c2ccc(NC(=O)c3nc4ccccc4s3)cc2OC[C@@H](C)N(Cc2ccccc2)C[C@H]1C | inactive
2 | COCC(=O)Nc1ccc2c(c1)C(=O)N(C)[C@H]1CC[C@H](CC(=O)NCc3ccc(OC)cc3)O[C@H]1CO2 | inactive
3 | C[C@@H]1CCCCO[C@H](CN(C)C(=O)Nc2ccccc2)[C@H](C)CN([C@@H](C)CO)C(=O)c2cc(NC(=O)c3ccncc3)ccc2O1 | inactive
4 | COc1ccc(S(=O)(=O)N[C@@H]2C=C[C@H](CC(=O)N3CCN(c4ccccc4)CC3)O[C@@H]2CO)cc1 | inactive
5 | Nc1cnn(-c2ccccc2)c(=O)c1N | inactive
6 | CO[C@@H]1CN(C)C(=O)c2cc(NS(C)(=O)=O)ccc2OC[C@@H](C)N(C(=O)c2ccc3c(c2)OCO3)C[C@H]1C | inactive
7 | C[C@H]1CN([C@@H](C)CO)C(=O)Cc2cc(NC(=O)C3CCCCC3)ccc2O[C@H]1CN(C)S(=O)(=O)c1cn(C)cn1 | inactive
8 | COCC(=O)N(C)C[C@H]1Oc2cc(C#CCN(C)C)ccc2S(=O)(=O)N([C@H](C)CO)C[C@H]1C | inactive
9 | O=C(CN1CCOCC1)NCC[C@@H]1CC[C@H](NS(=O)(=O)c2ccc(F)cc2)[C@@H](CO)O1 | inactive
10 | C[C@@H]1CCCCO[C@H](CN(C)S(=O)(=O)c2ccc(F)cc2)[C@@H](C)CN([C@H](C)CO)C(=O)c2cc(NC(=O)c3ccccc3)ccc2O1 | inactive
11 | C[C@@H]1CCCCO[C@@H](CN(C)C(=O)Nc2ccc(C(F)(F)F)cc2)[C@H](C)CN([C@@H](C)CO)C(=O)c2cc(NC(=O)CCC(F)(F)F)ccc2O1 | inactive
